Experimental data from patent US10358436B2, “Kinase inhibitors and method of treating cancer” (University Health Network, priority 2010, dated 2019).
Like-named read-outs stand apart in the source and are kept apart here.

What was measured:
Experiment in all cases: cells
[1] = test system: SW620 colon cancer cell line; settings: Homo sapiens, SW-620, 120 h, read-out: Cell Line GI50 Range SW-620
[2] = test system: A549 lung cancer cell line; settings: Homo sapiens, A549, 120 h, read-out: Cell Line GI50 Range A-549
[3] = test system: MDA-MB-468 basal breast cancer cell line; settings: Homo sapiens, MDA-MB-468, 120 h, read-out: Cell Line GI50 Range MDA-MB-468
[4] = test system: MCF-7 luminal breast cancer cell line; settings: Homo sapiens, MCF7, 120 h
[5] = test system: HCC1954 basal breast cancer cell line; settings: Homo sapiens, HCC1954, 120 h
[6] = read-out: Cell Line GI50 Range MCF-7
[7] = read-out: Cell Line GI50 Range HCC-1954
[8] = read-out: Cell Line GI50 Range MCF-7, MCF-7 luminal breast cancer cell line, SRB assay, 5 days
[9] = read-out: Cell Line GI50 Range HCC-1954, HCC1954 basal breast cancer cell line, SRB assay, 5 days

Row | Structure (SMILES) | GI50 [1] [µM] | GI50 [2] [µM] | GI50 [3] [µM] | GI50 [4, 6] [µM] | GI50 [5, 7] [µM] | GI50 [4, 8] [µM] | GI50 [5, 9] [µM]
1 | COc1ccc2c(c1)[C@]1(C[C@H]1c1ccc3c(-c4ccc(N5CCNCC5)nc4)n[nH]c3c1)C(=O)N2 (relative stereo) [Example A21, 4-(5-(6-((1R*,2S*)-5′-Methoxy-2′-oxospiro[cyclopropane-1,3′-indoline]-2-yl)-1H-indazol-3-yl)pyridinium-2-yl)piperazine bis(2,2,2-trifluoroacetate)] | 1 to 10 | 1 to 10 | 0.1 to 1 | < 0.1 | > 10 |  | 
2 | COc1ccc2c(c1)[C@]1(C[C@H]1c1ccc3c(-c4cccc(CO)c4)n[nH]c3c1)C(=O)N2 (relative stereo) [Example A43, (1R*,2S*)-2-(3-(3-(hydroxymethyl)phenyl)-1H-indazol-6-yl)-5′-methoxy spiro[cyclopropane-1,3′-indolin]-2′-one 2,2,2-trifluoroacetate] | 1 to 10 | 1 to 10 | 1 to 10 | 1 to 10 | > 10 |  | 
3 | COc1ccc2c(c1)[C@]1(C[C@H]1c1ccc3c(-c4cccc(CCO)c4)n[nH]c3c1)C(=O)N2 (relative stereo) [Example A46, (1R*,2S*)-2-(3-(3-(2-hydroxyethyl)phenyl)-1H-indazol-6-yl)-5′-methoxy spiro[cyclopropane-1,3′-indolin]-2′-one] | > 10 | 1 to 10 | 1 to 10 | 1 to 10 | > 10 |  | 
4 | CN1C(=O)[C@@]2(C[C@H]2c2ccc3c(/C=C/c4ccc(CN5CCOCC5)cc4)n[nH]c3c2)c2ccccc21 (relative stereo) [Example A87, (1R*,2S*)-(E)-1′-methyl-2-(3-(4-(morpholinomethyl)styryl)-1H-indazol-6-yl)spiro[cyclopropane-1,3′-indolin]-2′-one 2,2,2-trifluoroacetate] | 0.1 to 1 | < 0.1 | < 0.1 |  |  | < 0.1 | 1 to 10
5 | CN1CCN(c2ccc(-c3n[nH]c4cc([C@@H]5C[C@@]56C(=O)N(C)c5ccccc56)ccc34)cn2)CC1 (relative stereo) [Example A93, (1R*,2S*)-1′-methyl-2-(3-(6-(4-methylpiperazin-1-yl)pyridin-3-yl)-1H-indazol-6-yl)spiro[cyclopropane-1,3′-indolin]-2′-one bis(2,2,2-trifluoroacetate)] | 1 to 10 | 1 to 10 | 1 to 10 |  |  | 1 to 10 | 1 to 10
6 | COc1ccc2c(c1)[C@]1(C[C@H]1c1ccc3c(-c4ccc(N5CCN(C(C)C)CC5)cc4)n[nH]c3c1)C(=O)N2 (relative stereo) [Example A96, (1R*,2S*)-2-(3-(4-(4-isopropylpiperazin-1-yl)phenyl)-1H-indazol-6-yl)-5′-methoxyspiro[cyclopropane-1,3′-indolin]-2′-one] | < 0.1 | < 0.1 | < 0.1 |  |  | < 0.1 | 1 to 10
7 | COc1ccc2c(c1)[C@]1(C[C@H]1c1ccc3c(-c4ccc(OCCN(C)C)cc4)n[nH]c3c1)C(=O)N2 (relative stereo) [Example A103, (1R*,2S*)-2-(3-(4-(2-(dimethylamino)ethoxy)phenyl)-1H-indazol-6-yl)-5′-methoxyspiro[cyclopropane-1,3′-indolin]-2′-one 2,2,2-trifluoroacetate] | < 0.1 | < 0.1 | < 0.1 |  |  | < 0.1 | 1 to 10
8 | COc1ccc2c(c1)[C@]1(C[C@H]1c1ccc3c(-c4ccc(N5CCC(N(C)C)CC5)cc4)n[nH]c3c1)C(=O)N2 (relative stereo) [Example A119, (1R*,2S*)-2-(3-(4-(4-(dimethylamino)piperidin-1-yl)phenyl)-1H-indazol-6-yl)-5′-methoxyspiro[cyclopropane-1,3′-indolin]-2′-one 2,2,2-trifluoroacetate] | < 0.1 | < 0.1 | < 0.1 |  |  | < 0.1 | 0.1 to 1
9 | NS(=O)(=O)c1cccc(-c2n[nH]c3cc([C@@H]4C[C@@]45C(=O)Nc4ccccc45)ccc23)c1 (relative stereo) [Example A130, 3-(6-((1R*,2S*)-2′-oxospiro[cyclopropane-1,3′-indoline]-2-yl)-1H-indazol-3-yl)benzenesulfonamide] | > 10 | > 10 | 1 to 10 | 1 to 10 | > 10 |  | 
10 | COc1ccc2c(c1)[C@]1(C[C@H]1c1ccc3c(/C=C/c4cccc(CN5CCOCC5)c4)n[nH]c3c1)C(=O)N2 (relative stereo) [Example A133, (1R*,2S*)-5′-methoxy-2-(3-(3-(morpholinomethyl)styryl)-1H-indazol-6-yl)spiro[cyclopropane-1,3′-indolin]-2′-one 2,2,2-trifluoroacetate] | 0.1 to 1 | < 0.1 | < 0.1 | < 0.1 | > 10 |  | 
11 | COc1ccc2c(c1)[C@]1(C[C@H]1c1ccc3c(/C=C/c4cccc(CN(C)C)c4)n[nH]c3c1)C(=O)N2 (relative stereo) [Example A135, (1R*,2S*)-2-(3-(3-((dimethylamino)methyl)styryl)-1H-indazol-6-yl)-5′-methoxyspiro[cyclopropane-1,3′-indolin]-2′-one 2,2,2-trifluoroacetate] | 0.1 to 1 | < 0.1 | < 0.1 |  |  | < 0.1 | > 10
12 | COc1ccc2c(c1)[C@]1(C[C@H]1c1ccc3c(-c4ccc(CN5CCN(C)CC5)cc4)n[nH]c3c1)C(=O)N2 (relative stereo) [Example A140, (1R*,2S*)-5′-methoxy-2-(3-(4-((4-methylpiperazin-1-yl)methyl)phenyl)-1H-indazol-6-yl)spiro[cyclopropane-1,3′-indolin]-2′-one bis-2,2,2-trifluoroacetate] | 1 to 10 | < 0.1 | < 0.1 | < 0.1 | 1 to 10 |  | 
13 | COc1ccc2c(c1)[C@]1(C[C@H]1c1ccc3c(-c4cccc(C(=O)N5CCN(C)CC5)c4)n[nH]c3c1)C(=O)N2 (relative stereo) [Example A149, (1R*,2S*)-5′-methoxy-2-(3-(3-(4-methylpiperazine-1-carbonyl)phenyl)-1H-indazol-6-yl)spiro[cyclopropane-1,3′-indolin]-2′-one 2,2,2-trifluoroacetate] | > 10 | > 10 | 1 to 10 | 1 to 10 | > 10 |  | 
14 | COc1ccc2c(c1)[C@]1(C[C@H]1c1ccc3c(-c4ccc(CCN5CCOCC5)cc4)n[nH]c3c1)C(=O)N2 (relative stereo) [Example A159, (1R*,2S*)-5′-methoxy-2-(3-(4-(2-morpholinoethyl)phenyl)-1H-indazol-6-yl)spiro[cyclopropane-1,3′-indolin]-2′-one 2,2,2-trifluoroacetate] | 1 to 10 | 0.1 to 1 | 0.1 to 1 |  |  | 0.1 to 1 | > 10
15 | COc1ccc2c(c1)[C@]1(C[C@H]1c1ccc3c(/C=C/c4ccc(N5CCNCC5)nc4)n[nH]c3c1)C(=O)N2 (relative stereo) [Example A163, (1R*,2S*)-5′-methoxy-2-(3-((E)-2-(6-(piperazin-1-yl)pyridin-3-yl)vinyl)-1H-indazol-6-yl)spiro[cyclopropane-1,3′-indolin]-2′-one 2,2,2-trifluoroacetate] | < 0.1 | < 0.1 | < 0.1 |  |  | < 0.1 | 1 to 10
16 | COc1ccc2c(c1)[C@]1(C[C@H]1c1ccc3c(/C=C/c4ccc(N5CCN(C)CC5)cc4)n[nH]c3c1)C(=O)N2 (relative stereo) [Example A174, (1R*,2S*)-(E)-5′-methoxy-2-(3-(4-(4-methylpiperazin-1-yl)styryl)-1H-indazol-6-yl)spiro[cyclopropane-1,3′-indolin]-2′-one 2,2,2-trifluoroacetate] | < 0.1 | < 0.1 | < 0.1 | < 0.1 | 0.1 to 1 |  | 
17 | COc1ccc2c(c1)[C@]1(C[C@H]1c1ccc3c(/C=C/c4ccc(CCN5CCOCC5)cc4)n[nH]c3c1)C(=O)N2 (relative stereo) [Example A178, (1R*,2S*)-(E)-5′-methoxy-2-(3-(4-(2-morpholinoethyl)styryl)-1H-indazol-6-yl)spiro[cyclopropane-1,3′-indolin]-2′-one 2,2,2-trifluoroacetate] | < 0.1 | < 0.1 | < 0.1 |  |  | < 0.1 | 0.1 to 1
18 | COc1ccc2c(c1)[C@]1(C[C@H]1c1ccc3c(/C=C/c4ccc(N5CCNCC5)cc4)n[nH]c3c1)C(=O)N2 (relative stereo) [Example A182, (1R*,2S*)-5′-methoxy-2-(3-(4-(piperazin-1-yl)styryl)-1H-indazol-6-yl)spiro[cyclopropane-1,3′-indolin]-2′-one 2,2,2-trifluoroacetate] | < 0.1 | < 0.1 | < 0.1 |  |  | < 0.1 | < 0.1
19 | COc1ccc2c(c1)[C@]1(C[C@H]1c1ccc3c(/C=C/c4csc(CN5CCOCC5)c4)n[nH]c3c1)C(=O)N2 (relative stereo) [Example A184, (1R*,2S*)-5′-methoxy-2-(3-((E)-2-(5-(morpholinomethyl)thiophen-3-yl)vinyl)-1H-indazol-6-yl)spiro[cyclopropane-1,3′-indolin]-2′-one 2,2,2-trifluoroacetate] | < 0.1 | < 0.1 | < 0.1 | 0.1 to 1 | > 10 |  | 
